# From article PMC4336329 (PLoS ONE, 2015)
# Screen size: about 310,000 compounds; about 14,000 (4.5%) showed an effect of 50% or more. The effect is printed as a negative number. This is one part of the list.
# Molecular target: human ether-à-go-go-related gene (hERG) potassium channel (human, UniProt Q12809)
# Assay: primary screen, population patch clamp on CHO cells stably expressing hERG
# 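Note: peak tail current of the secondary pulse compared with the same well before compound.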
# Chain of human ether-à-go-go-related gene (hERG) potassium channel (Q12809 whole entry, looked up): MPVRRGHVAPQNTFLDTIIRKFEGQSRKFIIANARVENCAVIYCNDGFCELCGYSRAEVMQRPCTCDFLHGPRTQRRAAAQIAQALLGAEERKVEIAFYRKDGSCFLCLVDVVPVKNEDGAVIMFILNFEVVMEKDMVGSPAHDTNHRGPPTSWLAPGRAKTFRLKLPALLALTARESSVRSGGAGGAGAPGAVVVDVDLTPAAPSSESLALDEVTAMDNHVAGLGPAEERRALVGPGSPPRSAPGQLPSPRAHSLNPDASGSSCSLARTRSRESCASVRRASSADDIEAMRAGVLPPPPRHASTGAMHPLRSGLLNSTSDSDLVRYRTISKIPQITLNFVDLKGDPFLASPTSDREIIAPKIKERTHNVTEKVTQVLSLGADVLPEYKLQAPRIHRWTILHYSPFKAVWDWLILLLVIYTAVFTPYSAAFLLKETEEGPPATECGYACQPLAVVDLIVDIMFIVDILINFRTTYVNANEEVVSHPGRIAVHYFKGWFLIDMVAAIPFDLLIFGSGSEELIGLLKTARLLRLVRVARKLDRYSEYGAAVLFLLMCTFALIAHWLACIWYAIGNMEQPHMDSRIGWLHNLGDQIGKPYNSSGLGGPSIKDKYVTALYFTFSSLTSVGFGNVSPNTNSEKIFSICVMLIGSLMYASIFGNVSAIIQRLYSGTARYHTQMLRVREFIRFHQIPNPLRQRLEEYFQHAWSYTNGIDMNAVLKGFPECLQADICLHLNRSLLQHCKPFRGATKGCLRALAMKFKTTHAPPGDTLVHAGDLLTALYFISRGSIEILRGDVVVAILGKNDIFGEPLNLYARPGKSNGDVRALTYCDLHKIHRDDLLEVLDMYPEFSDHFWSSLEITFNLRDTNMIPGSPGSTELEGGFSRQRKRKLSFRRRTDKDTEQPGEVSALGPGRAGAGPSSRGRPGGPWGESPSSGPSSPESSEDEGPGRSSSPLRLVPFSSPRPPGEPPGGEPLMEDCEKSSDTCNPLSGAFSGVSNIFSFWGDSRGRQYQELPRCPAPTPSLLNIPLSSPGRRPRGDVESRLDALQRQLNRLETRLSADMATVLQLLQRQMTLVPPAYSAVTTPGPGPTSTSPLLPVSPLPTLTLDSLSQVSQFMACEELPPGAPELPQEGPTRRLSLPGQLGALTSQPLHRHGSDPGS
row,Compound,"hERG current change (%, negative = inhibition) at 10uM"
1,CC1CCN(C(=O)C(C)OC(=O)CSc2ccc([N+](=O)[O-])cc2)CC1 (stereo not shown),-50.1%
2,CC(=O)Nc1ccc(N2CCCC(C)C2)c([N+](=O)[O-])c1 (stereo not shown),2.88%
3,CC(=O)OC(COc1cccc(C)c1)Cn1cnc2ccccc21.Cl (stereo not shown),-37.3%
4,COc1ccc(NC(=O)CSCc2ccc([N+](=O)[O-])cc2)cc1OC,-17.5%
5,Cc1ccccc1-n1ncc2c1CC(C)(C)CC2NC(=O)c1cn[nH]c1C (stereo not shown),-6.22%
6,COC(=O)c1ccc(C(=O)OC)c(NS(C)(=O)=O)c1,-1.73%
7,CCOC(=O)N1CCN(C(=O)c2c(O)c3cccc4c3n(c2=O)CC4)CC1,-0.319%
8,COc1ccc(Cl)cc1NC(=O)CCCNC(=O)c1ccc(Cl)cc1,-4.84%
9,CC(C)(C)NC(=O)NC(=O)COC(=O)c1cccc(F)c1,-1.01%
10,CCC1=C(OC(=O)N(CC)CC)N2C(=O)OC(=NCC3CC3)[C@]2(C)[C@H]2C1=CC[C@H]1C(=O)N(CC(=O)OC)C(=O)[C@H]12,-5.67%
11,CCCn1nnc(NC(=O)C(C)C)n1,23%
12,COc1ccc(/C=C2/C(=O)N(c3ccccc3)N=C2C)cc1OC,14.1%
13,Cc1cnc(C(=O)OCC(=O)Nc2cc(S(=O)(=O)N3CCCCC3)ccc2Cl)cn1,8.26%
14,CC(C)[C@H](NC(=O)N1CCn2c1nc1ccccc12)C(=O)NCc1ccccc1Cl,-0.447%
15,Cl.c1ccc(-n2cnc3cc(NCc4ccccn4)ccc32)cc1,-20%
16,COc1ccc(CCNC(=O)CSc2nc(-c3ccco3)cc(C(F)(F)F)n2)cc1,-7.9%
17,COc1ccc(OC)c(NC(=O)CCN2CCN(c3ccccc3F)CC2)c1,-22.1%
18,CN1CCc2c1nc1ccccc1c2NC(=O)CN1CCCC1,-1.61%
19,Cc1cc(C)c2c(N)c(-c3nnc(SCc4ccc(Cl)cc4)n3C)sc2n1,11.7%
20,O=C(CN1C(=O)c2ccccc2S1(=O)=O)c1ccccc1Cl,-11.1%
21,CC(=O)c1c(C)n(-c2ccc(Br)cc2)c2ccc(O)cc12,17.1%
22,CC(=O)Nc1ccc(S(=O)(=O)Oc2ccccc2N2C(=O)C3C4CCC(C4)C3C2=O)cc1 (stereo not shown),3.09%

row,Compound,"hERG current change (%, negative = inhibition) at 10uM"
1,Cc1ccc(C(C(=O)NC2CCCC2)N(Cc2ccccc2)C(=O)c2csnn2)o1 (stereo not shown),21.8%
2,COc1ccc(Nc2nc(N/N=C/c3ccc(N(C)C)cc3)nc(C)c2[N+](=O)[O-])cc1,21.5%
3,COC(=O)c1ccc(Cn2nnc3c(=O)[nH]c(C4CCCN(S(=O)(=O)c5ccccc5)C4)nc32)cc1 (stereo not shown),16.7%
4,CC(C)Oc1ccc(/C(O)=C2/C(=O)C(=O)N(CCN3CCOCC3)C2c2ccccc2)cc1 (stereo not shown),13.6%
5,CCOC(=O)CCSc1nc(-c2ccccc2)cc(C(F)(F)F)n1,4.47%
6,CSc1c[n+]2c(n1C)CCC2.[I-],9.47%
7,Brc1ccc(-c2ccccc2)cc1,0.132%
8,CCOC(=O)N1CCN(c2c(NCCN3CCN(Cc4ccccc4)CC3)c(=O)c2=O)CC1,-12.9%
9,O=C(c1ccc(CS(=O)(=O)c2ccc(Br)cc2)o1)N1CCN(C2CCCCC2)CC1,-22.4%
10,COc1ccc(Cl)cc1NC(=O)CCN1C(=O)C2C3C=CC(C4CC34)C2C1=O (stereo not shown),-24.4%
11,COc1ccc(-c2nnc3ccc(SCC(=O)Nc4cc(C)on4)nn23)cc1OC,6.55%
12,CC(=O)Nc1ccc(N(C)S(C)(=O)=O)cc1,-0.725%
13,O=C1CN2C(=Nc3ccc(Br)cc3C2c2ccccc2)CCN1 (stereo not shown),-16.5%
14,Cc1ccccc1CC(=O)Nc1cccnc1,14.4%
15,COc1ccccc1CCNC(=O)CCSc1nc(-c2ccco2)cc(C(F)(F)F)n1,13.6%
16,CN1CCN(c2ccc(Cl)cc2NC(=O)CC2OC(=O)c3ccccc32)CC1 (stereo not shown),-74.5%
17,CN(c1ccc(O)cc1)c1nc(-c2ccccc2)cs1,15.3%
18,CN(Cc1ccncc1)C1CC(=O)N(c2ccc(Cl)cc2)C1=O (stereo not shown),-17.9%
19,Cc1oc(-c2cccc(F)c2)nc1CN(Cc1ccccc1)C[C@@H]1CCC(=O)N1,7.22%
20,C/C(=N\NC(=O)COc1ccccc1)c1ccc(O)cc1,17.9%
21,CC(Cl)C(=O)N1c2ccccc2CCc2ccccc21 (stereo not shown),-5.02%
22,Cc1cc(Nc2ccc3c(c2)OCCO3)c2ccccc2n1.Cl,-56.1%

row,Compound,"hERG current change (%, negative = inhibition) at 10uM"
1,CC(C)CN(C(=O)CSc1n[nH]c(-c2cccs2)n1)C1CCS(=O)(=O)C1 (stereo not shown),-2.69%
2,Cc1ccc(C)c(-n2c(SCC(=O)N3CCCC3)nnc2-c2ccccn2)c1,-0.403%
3,CC1CCc2c(C(=O)NCc3ccco3)csc2C1 (stereo not shown),-8.96%
4,Cc1cc(C)c2c(N)c(C(=O)NC3CCCC3)sc2n1,0.093%
5,Cc1c(C(=O)N(C)CCC#N)oc2ccc(S(=O)(=O)N3CC(C)CC(C)C3)cc12 (stereo not shown),-17.1%
6,Cl.O=C(CC12CC3CC(CC(C3)C1)C2)NCC(c1ccc(F)cc1)N1CCOCC1 (stereo not shown),4.4%
7,COc1ccc(Cl)cc1NC(=O)Nc1cc(C)on1,0.43%
8,CCC1(CC)NC(=O)N(CC(=O)OC(C)C(=O)Nc2cc([N+](=O)[O-])ccc2OC)C1=O (stereo not shown),-6.42%
9,CCN(CC)C(CNC(=O)c1cc(=O)[nH]c2ccccc12)c1ccccc1Cl (stereo not shown),3.58%
10,COCc1cc(C)nc(OCC(=O)N/N=C/c2ccc(O)cc2O)c1C#N,-15.6%
11,O=C(COC(=O)c1cccc(Cl)c1)NCCN1C(=O)CSC1=O,9.89%
12,COc1ccc(-c2cc(-c3ccccc3)nc(SCC(=O)Nc3nccs3)c2C#N)cc1,7.1%
13,CCCc1nn(C)c(C(=O)Nc2ccccc2)c1Cl,-13.4%
14,N#Cc1ccc(OCC(=O)Nc2ccc(N3CCCC3)cc2)cc1,-20.7%
15,COc1ccc2c(CC(=O)Nc3ccc(OC)nc3)coc2c1,3.6%
16,CC(C)C(=O)NN(C(=O)c1ccccc1)c1ccccc1,20.4%
17,CCCC(=O)Nc1ccccc1NC(=O)c1ccc(OC)cc1,11.9%
18,O=c1c([N+](=O)[O-])cccn1Cc1cccc(Cl)c1,-3.53%
19,CC(=O)c1c(C)nc(-c2ccccc2)nc1N,22.8%
20,CC(C)OC(=O)n1c(=S)oc2ccccc21,8.17%
21,NC(=O)c1ccc(SCC(=O)NC2CCCCC2)c([N+](=O)[O-])c1,23.8%
22,CCOC(=O)c1c(C)n(-c2ccc(C)cc2)c2ccc(O)c(CN(C)C)c12.Cl,-74.2%

row,Compound,"hERG current change (%, negative = inhibition) at 10uM"
1,CCOC(=O)C1=C(C)NC(=S)NC1c1ccc(OCC(=O)N2CCCCCC2)c(OC)c1 (stereo not shown),14.2%
2,CCCCN(C)C(=O)c1nc2ccccn2c1CNCCCn1nnc2ccccc21,-38%
3,CCNc1c(NS(=O)(=O)c2ccc(Cl)s2)c(=O)oc2ccccc12,3.59%
4,CN1CCN(CCOCCOc2c(Cl)cc(Cl)cc2Cl)CC1.O=C(O)C(=O)O,-26.9%
5,Cc1cc(C)c(S(C)(=O)=O)c(Oc2cccc(Cl)c2)n1,7.17%
6,COc1ccc(-c2cc(C(=O)N3CCCC3)no2)cc1OC,-1.69%
7,CN(C)S(=O)(=O)N(CC(=O)Nc1ccc2ccccc2c1)c1ccccc1,8.45%
8,O=C(COc1cccc([N+](=O)[O-])c1)N/N=C/c1ccco1,-25.2%
9,O=C1CN=C(c2ccc(Cl)cc2)c2oc3ccccc3c2N1,10.2%
10,C=CC(C)(O)CCCC(C)CCCC(C)CCCC(C)C (stereo not shown),17.1%
11,Cc1ccnc(NC(=O)Nc2ccc(Br)cc2Cl)c1,11.6%
12,CCOC(=O)c1nnc(-c2ccc(C)cc2)nc1Oc1ccccc1Cl,0.159%
13,COC(=O)c1sccc1NC(=O)Nc1cc(C)ccc1OC,-10%
14,CCN(CC)c1ccc(C2C(C(=O)OC(C)C)C(=O)CC(C)(O)C2C(=O)OC(C)C)cc1 (stereo not shown),18%
15,CCCCNC(=O)/C=C/c1ccc(OC)c(Br)c1,-6.27%
16,Cc1ccc(Cn2c(N3CCNCC3)nc3c2c(=O)[nH]c(=O)n3C)cc1,13%
17,CNC(=O)NC1CCCCc2sccc21 (stereo not shown),-15.8%
18,Cc1ccc(C(=O)N2N=C(c3cccc(NS(C)(=O)=O)c3)CC2c2cccs2)cc1 (stereo not shown),1.13%
19,CC1CCN(c2nc(NCc3ccco3)nc(N)c2[N+](=O)[O-])CC1,-11.9%
20,COc1ccc2cc(CCNC(=O)c3ccco3)c(=O)[nH]c2c1,-2.81%
21,Cc1ccccc1C(=O)NC(=S)Nc1ccccc1C(=O)O,15.5%
22,OCCCn1c(C2CCCN2c2nc(-c3ccc(Cl)cc3)cs2)nc2cc(C(F)(F)F)ccc21 (stereo not shown),-15.2%
